Data on 28 molecules can be found in the supplement of paper PMC4604168 (melanoma cell lines).

The other results are listed elsewhere or left out. Repeats are few or missing, and single values can be far off.
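Also: cell number obtained by counting DAPI-stained nuclei in high-throughput microscope images with image analysis software, screen run in 1,536-well plates.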

The subject of the first assay is UACC257. The experiment in a line: cell count relative to DMSO control; melanoma cells; higher = more viable cells. To be noted: library dose: low library concentration; 72 h.
Take `Nc1ncn([C@H]2C[C@H](O)[C@@H](CO)O2)c(=O)n1` [decitabine] + COc1ccc(-c2ccc3c(N4CCOCC4)nc(N4C[C@@H](C)O[C@@H](C)C4)nc3n2)cc1CO [KU0063794] (first compound 0.1 µM, partner dose 0.02 µM): the cell count amounted to 83.1%.

With `Nc1ccn([C@@H]2O[C@H](CO)[C@@H](O)C2(F)F)c(=O)n1` [gemcitabine] + CC1(C)NC(=O)N(c2ccc([N+](=O)[O-])c(C(F)(F)F)c2)C1=O [nilutamide] (first compound 0.0004 µM, partner dose 1 µM), the cell count was 106%.

`CC(=O)c1c(C)c2cnc(Nc3ccc(N4CCNCC4)cn3)nc2n(C2CCCC2)c1=O` [palbociclib] + CC(C)(C)c1cnc(CSc2cnc(NC(=O)C3CCNCC3)s2)o1 [SNS-032] (first compound 0.04 µM, partner dose 0.01 µM) gave a cell count of 92.3%. Same read-out and setting: to `Nc1ccn([C@@H]2O[C@H](CO)[C@@H](O)C2(F)F)c(=O)n1` [gemcitabine] + Cc1ccc(NC(=O)c2cccc(N(C)C)c2)cc1NC(=O)c1ccc(O)cc1 [ZM336372] (first compound 0.0004 µM, partner dose 2 µM) belongs 93.6%.

For another assay, the system named is UACC62. The description is as above. As to conditions: library dose: low library concentration; 72 h.
Molecule `CC(=O)O[C@@]12CO[C@@H]1C[C@H](O)[C@@]1(C)C(=O)[C@H](O)C3=C(C)[C@@H](OC(=O)[C@H](O)[C@@H](NC(=O)OC(C)(C)C)c4ccccc4)C[C@@](O)([C@@H](OC(=O)c4ccccc4)[C@H]21)C3(C)C` [Docetaxel] + CN(NC(=O)CC(=O)NN(C)C(=S)c1ccccc1)C(=S)c1ccccc1 [STA4783] (first compound 0.0001 µM, partner dose 0.006 µM) came in with a cell count of 55.4%. Same read-out and setting: in the case of `CC(=O)O[C@@]12CO[C@@H]1C[C@H](O)[C@@]1(C)C(=O)[C@H](O)C3=C(C)[C@@H](OC(=O)[C@H](O)[C@@H](NC(=O)OC(C)(C)C)c4ccccc4)C[C@@](O)([C@@H](OC(=O)c4ccccc4)[C@H]21)C3(C)C` [Docetaxel] + Cc1ccc(NC(=O)c2cccc(N(C)C)c2)cc1NC(=O)c1ccc(O)cc1 [ZM336372] (first compound 0.0001 µM, partner dose 2 µM) it was 40%; in that of `Nc1ncn([C@H]2C[C@H](O)[C@@H](CO)O2)c(=O)n1` [decitabine] + CO[C@@H]1[C@H](N(C)C(=O)c2ccccc2)C[C@H]2O[C@]1(C)n1c3ccccc3c3c4c(c5c6ccccc6n2c5c31)C(=O)NC4 [Midostaurin] (first compound 0.1 µM, partner dose 0.08 µM), 78.7%. Still for that read-out and setting: to `Nc1ccn([C@@H]2O[C@H](CO)[C@@H](O)C2(F)F)c(=O)n1` [gemcitabine] + CCc1ccc(CCOc2ccc(CC3SC(=O)NC3=O)cc2)nc1 [pioglitazone] (first compound 0.0004 µM, partner dose 2 µM) belongs 93.7%; to `CC(=O)c1c(C)c2cnc(Nc3ccc(N4CCNCC4)cn3)nc2n(C2CCCC2)c1=O` [palbociclib] + C=CCn1c(=O)c2cnc(Nc3ccc(N4CCN(C)CC4)cc3)nc2n1-c1cccc(C(C)(C)O)n1 [MK1775] (first compound 0.04 µM, partner dose 0.02 µM), 69.1%. As for `CC(=O)c1c(C)c2cnc(Nc3ccc(N4CCNCC4)cn3)nc2n(C2CCCC2)c1=O` [palbociclib] + Oc1cc(-c2nc(-c3ccccc3)[nH]c2-c2ccncc2)ccc1Cl [L779450] (first compound 0.04 µM, partner dose 0.2 µM), the cell count was found to be 65.1%.

The molecule `Nc1ncn([C@H]2C[C@H](O)[C@@H](CO)O2)c(=O)n1` [decitabine] + c1cc(-c2cnn3cc(-c4ccc(OCCN5CCCCC5)cc4)cnc23)ccn1 [Dorsomorphin] (first compound 0.1 µM, partner dose 0.4 µM) returned a cell count of 87.8%. Same read-out and setting: to `Nc1ncn([C@H]2C[C@H](O)[C@@H](CO)O2)c(=O)n1` [decitabine] + O=C(Nc1ccccc1)c1cc([N+](=O)[O-])ccc1Cl [GW9662] (first compound 0.1 µM, partner dose 2 µM) belongs 65.1%. Still for that read-out and setting: in the case of `Nc1ncn([C@H]2C[C@H](O)[C@@H](CO)O2)c(=O)n1` [decitabine] + O=C(Nc1cccc(Cl)c1)Nc1ncc(CCNc2ncnc3ccsc23)s1 [SNS314] (first compound 0.1 µM, partner dose 0.0008 µM) it was 79.6%; in that of `CC(=O)O[C@@]12CO[C@@H]1C[C@H](O)[C@@]1(C)C(=O)[C@H](O)C3=C(C)[C@@H](OC(=O)[C@H](O)[C@@H](NC(=O)OC(C)(C)C)c4ccccc4)C[C@@](O)([C@@H](OC(=O)c4ccccc4)[C@H]21)C3(C)C` [Docetaxel] + Cn1cncc1[C@@](N)(c1ccc(Cl)cc1)c1ccc2c(c1)c(-c1cccc(Cl)c1)cc(=O)n2C [tipifarnib] (first compound 0.0001 µM, partner dose 0.01 µM), 55.5%.

Molecule `Nc1nc(F)nc2c1ncn2[C@@H]1O[C@H](CO)[C@@H](O)[C@@H]1O` [fludarabine] + CC1(C)NC(=O)N(c2ccc([N+](=O)[O-])c(C(F)(F)F)c2)C1=O [nilutamide] (first compound 0.2 µM, partner dose 1 µM) had a cell count of 79%. Still for that read-out and setting: to `Nc1ncn([C@H]2C[C@H](O)[C@@H](CO)O2)c(=O)n1` [decitabine] + O=C(CCCCCCC(=O)Nc1ccccc1)NO [vorinostat] (first compound 0.1 µM, partner dose 0.08 µM) belongs 70.6%; to `CC(=O)c1c(C)c2cnc(Nc3ccc(N4CCNCC4)cn3)nc2n(C2CCCC2)c1=O` [palbociclib] + COc1ccc(-c2ccc3c(N4CCOCC4)nc(N4C[C@@H](C)O[C@@H](C)C4)nc3n2)cc1CO [KU0063794] (first compound 0.04 µM, partner dose 0.02 µM), 78.1%. Molecule `Nc1nc(F)nc2c1ncn2[C@@H]1O[C@H](CO)[C@@H](O)[C@@H]1O` [fludarabine] + O=C(O)C(=O)Nc1sc2c(c1C(=O)O)CCNC2 [TCS401] (first compound 0.2 µM, partner dose 1.66667 µM) yielded a cell count of 77.6%. Same read-out and setting: in the case of `Nc1ncn([C@H]2C[C@H](O)[C@@H](CO)O2)c(=O)n1` [decitabine] + COc1cc(Nc2ncc(F)c(Nc3ccc4c(n3)NC(=O)C(C)(C)O4)n2)cc(OC)c1OC [Tamatinib] (first compound 0.1 µM, partner dose 0.4 µM) it was 60.3%; in that of `Nc1nc(F)nc2c1ncn2[C@@H]1O[C@H](CO)[C@@H](O)[C@@H]1O` [fludarabine] + CCc1ccc(CCOc2ccc(CC3SC(=O)NC3=O)cc2)nc1 [pioglitazone] (first compound 0.2 µM, partner dose 2 µM), 77.5%; in that of `Nc1ccn([C@@H]2O[C@H](CO)[C@@H](O)C2(F)F)c(=O)n1` [gemcitabine] + O=C(Nc1cccc(Cl)c1)Nc1ncc(CCNc2ncnc3ccsc23)s1 [SNS314] (first compound 0.0004 µM, partner dose 0.0008 µM), 96.2%. `Nc1ccn([C@@H]2O[C@H](CO)[C@@H](O)C2(F)F)c(=O)n1` [gemcitabine] + CN(C)S(=O)(=O)c1ccc2c(c1)/C(=C/c1cc3c([nH]1)CCCC3)C(=O)N2 [SU6656] (first compound 0.0004 µM, partner dose 0.4 µM): the cell count was found to be 81.8%. Consider `Nc1ncn([C@H]2C[C@H](O)[C@@H](CO)O2)c(=O)n1` [decitabine] + COc1cc(N2CCC(N3CCN(C)CC3)CC2)ccc1Nc1ncc(Cl)c(Nc2ccccc2S(=O)(=O)C(C)C)n1 [NVP-TAE684] (first compound 0.1 µM, partner dose 0.08 µM), for which the cell count amounted to 82.3%. On the same count and under the same terms, in the case of `CC(=O)O[C@@]12CO[C@@H]1C[C@H](O)[C@@]1(C)C(=O)[C@H](O)C3=C(C)[C@@H](OC(=O)[C@H](O)[C@@H](NC(=O)OC(C)(C)C)c4ccccc4)C[C@@](O)([C@@H](OC(=O)c4ccccc4)[C@H]21)C3(C)C` [Docetaxel] + CCCCCCCCCCCC1=C(O)C(=O)C=C(O)C1=O [Embelin] (first compound 0.0001 µM, partner dose 1.2 µM) it was 41%.

For the molecule `CC(=O)c1c(C)c2cnc(Nc3ccc(N4CCNCC4)cn3)nc2n(C2CCCC2)c1=O` [palbociclib] + O=C(Nc1cccc(Cl)c1)Nc1ncc(CCNc2ncnc3ccsc23)s1 [SNS314] (first compound 0.04 µM, partner dose 0.0008 µM), the cell count was determined as 83.1%. `CC(=O)O[C@@]12CO[C@@H]1C[C@H](O)[C@@]1(C)C(=O)[C@H](O)C3=C(C)[C@@H](OC(=O)[C@H](O)[C@@H](NC(=O)OC(C)(C)C)c4ccccc4)C[C@@](O)([C@@H](OC(=O)c4ccccc4)[C@H]21)C3(C)C` [Docetaxel] + N#Cc1c(O)c2c(-c3ccc(-c4ccccc4O)cc3)csc2[nH]c1=O [A769662] (first compound 0.0001 µM, partner dose 2 µM) showed a cell count of 41.9%. Same read-out and setting: in the case of `Nc1ccn([C@@H]2O[C@H](CO)[C@@H](O)C2(F)F)c(=O)n1` [gemcitabine] + CC(C)CCN1c2nc(Nc3cc(F)c(O)c(F)c3)ncc2N(C)C(=O)C1C [BID1870] (first compound 0.0004 µM, partner dose 0.2 µM) it was 87.9%; in that of `Nc1nc(F)nc2c1ncn2[C@@H]1O[C@H](CO)[C@@H](O)[C@@H]1O` [fludarabine] + N#Cc1c(O)c2c(-c3ccc(-c4ccccc4O)cc3)csc2[nH]c1=O [A769662] (first compound 0.2 µM, partner dose 2 µM), 76.9%.
